Measured values: article PMC11993666 (2025)

Biological target: ChiLob7/4 hIgG1
Test: SPR

ChiLob7/4 hIgG1, sequence (P25942 21-277): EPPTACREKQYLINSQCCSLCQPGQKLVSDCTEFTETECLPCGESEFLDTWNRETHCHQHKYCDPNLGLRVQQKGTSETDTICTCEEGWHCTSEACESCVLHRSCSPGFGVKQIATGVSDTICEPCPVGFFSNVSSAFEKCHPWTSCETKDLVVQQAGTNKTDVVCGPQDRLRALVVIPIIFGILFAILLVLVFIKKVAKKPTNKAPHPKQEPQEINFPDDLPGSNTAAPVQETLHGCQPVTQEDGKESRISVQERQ

Kd: 0.579 nM
koff: 7.47e-05 s⁻¹
B1: hCD40 (as used in SPR) (receptor)
chain: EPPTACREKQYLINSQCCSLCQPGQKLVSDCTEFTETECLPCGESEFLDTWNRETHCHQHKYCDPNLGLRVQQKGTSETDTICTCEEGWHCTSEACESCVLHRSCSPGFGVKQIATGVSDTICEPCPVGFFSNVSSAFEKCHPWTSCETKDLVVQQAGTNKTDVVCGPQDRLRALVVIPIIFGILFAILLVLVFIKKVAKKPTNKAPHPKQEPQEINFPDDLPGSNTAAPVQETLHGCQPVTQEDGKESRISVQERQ
